Laboratory results reported in PubChem BioAssay AID360 (National Center for Advancing Translational Sciences (NCATS), 2006).
Out of some 48,000 compounds screened, about 550 (1.1%) were called active. Roughly 4% stayed inconclusive and do not appear here. Cut-off read from the data, not from the text of the source: active = potency below about 15 µM; inconclusive = mostly about 16 µM to 33 µM; inactive = weaker than that. The list shows a part of the results.

Molecular target: Lysosomal acid glucosylceramidase (Homo sapiens) (UniProt P04062)
UniProt P04062, sequence (P04062 whole entry, looked up): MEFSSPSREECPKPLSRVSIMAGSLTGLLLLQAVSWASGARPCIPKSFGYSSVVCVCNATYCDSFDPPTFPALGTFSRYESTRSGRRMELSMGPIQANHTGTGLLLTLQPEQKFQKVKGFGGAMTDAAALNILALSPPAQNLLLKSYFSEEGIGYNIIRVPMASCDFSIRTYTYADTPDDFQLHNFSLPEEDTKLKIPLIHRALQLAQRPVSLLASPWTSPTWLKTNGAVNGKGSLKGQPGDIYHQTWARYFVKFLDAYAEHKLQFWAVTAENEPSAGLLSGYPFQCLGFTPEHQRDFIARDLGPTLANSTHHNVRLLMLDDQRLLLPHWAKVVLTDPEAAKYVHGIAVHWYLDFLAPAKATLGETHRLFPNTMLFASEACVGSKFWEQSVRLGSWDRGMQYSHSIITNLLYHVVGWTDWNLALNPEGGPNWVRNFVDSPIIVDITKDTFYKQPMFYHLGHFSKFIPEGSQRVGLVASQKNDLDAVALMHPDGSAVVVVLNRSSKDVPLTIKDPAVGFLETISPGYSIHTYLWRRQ
Test: Glucocerebrosidase;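 note: the screen sought inhibitors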
Conditions: purified enzyme, resorufin glucoside fluorescence (screen aimed at inhibitors), 20 min; series mostly up to 77 µM
Summary of the method: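 Compounds titrated against 0.2 nM normal enzyme, 30 uM resorufin beta-D-glucopyranoside substrate, citrate/phosphate buffer with taurocholate and tween-20, pH 5.9. Reaction ran 20 min at room temperature; fluorescence (Ex 548/Em 600) gave AC50.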
Potency is the fitted concentration of half-maximal effect.

| Structure (SMILES) | Potency |
| --- | --- |
| CCOC(=O)N1CCC(NC(=O)C2CCCN(S(C)(=O)=O)C2)CC1 (stereo unspecified) | inactive: > 76.9 µM |
| O=C(Nc1cccc2ccccc12)N1CCN(c2ccccc2)CC1 | inactive: > 76.9 µM |
| O=C(Cn1cnc2ccccc21)NCCCN1CCOCC1 | inactive: > 76.9 µM |
| Cn1cnc2cc(NS(=O)(=O)c3ccc(Br)cc3)ccc21 | inactive |
| CC(Sc1nc(-c2ccccc2)cc(C(F)(F)F)n1)C(=O)N1CCC(C(N)=O)CC1 (stereo unspecified) | inactive: > 76.9 µM |
| Cc1noc(C)c1S(=O)(=O)N1CCCC(C(=O)Nc2cccnc2)C1 (stereo unspecified) | inactive: > 76.9 µM |
| COc1ccc(OCC(=O)NCc2cccnc2)cc1 | inactive: > 76.9 µM |
| O=C(O)c1cccc(CSc2nnc(Cc3ccccc3)o2)c1 | inactive: > 76.9 µM |
| Cc1ccccc1-c1nc(CN2CCC(C(=O)NCCCN3CC(C)CC(C)C3)CC2)c(C)o1 (stereo unspecified) | inactive: > 76.9 µM |
| Cc1ccc2c(C)nc(NC3=NCN(C(C)C)CN3)nc2c1 | inactive: > 76.9 µM |
| CCOC(=O)NC1CCS(=O)(=O)C1 (stereo unspecified) | inactive: > 76.9 µM |
| CCOCCCN1C(=O)CN(C2CCCCC2)C(=O)C1c1ccc(OC)c(OC)c1 (stereo unspecified) | inactive: > 76.9 µM |
| Cc1ccc(Cl)cc1N1CCN(Cc2nc3c(c(=O)[nH]c(=O)n3C)n2CCc2ccccc2)CC1 | inactive: > 76.9 µM |
| Cc1ccc(C2=N/C(=C/N3CCOCC3)C(=O)O2)cc1 | inactive: > 76.9 µM |
| Cn1c(=O)cc(SCC(=O)NCC2CCCO2)c2ccccc21 (stereo unspecified) | inactive: > 76.9 µM |
| COc1cc(-c2nnc(SCc3cccnc3)n2C)cc(OC)c1O | inactive: > 76.9 µM |
| Brc1c(CSc2nncn2-c2ccccc2)nc2ncccn12 | inactive: > 76.9 µM |
| CC(C)CCn1nnnc1C(c1ccccc1)N1CCN(C)CC1 (stereo unspecified) | inactive: > 76.9 µM |
| CCCOc1ccc(C2c3c(oc4ccccc4c3=O)C(=O)N2CCN(CC)CC)cc1OC (stereo unspecified) | inactive: > 76.9 µM |
| c1ccc(CCNc2ncnc3c2nnn3Cc2ccccc2)cc1 | inactive: > 76.9 µM |
| CCN(CC)C(=O)c1c[nH]c2ccc(S(=O)(=O)Nc3cc(C)cc(C)c3)cc2c1=O | inactive: > 76.9 µM |
| CCOc1ccccc1NC(=O)CCC(=O)Nc1ccc2nc(N3CCN(C)CC3)cc(C)c2c1 | active: 9.63 µM |
| COc1ccccc1-n1c(N)c(C(N)=O)sc1=S | inactive: > 76.9 µM |

| Structure (SMILES) | Potency |
| --- | --- |
| COc1ccc(C2=CC(=O)OC3(CCCCC3)O2)cc1 | inactive: > 76.9 µM |
| CCCn1c(SCC(=O)Nc2nc(C)c(C(=O)OC)s2)nnc1C(C)C | inactive: > 76.9 µM |
| CC(C)Cc1nnc(NC(=O)CSc2ncn[nH]2)s1 | inactive: > 76.9 µM |
| COCCCN1C(=O)C(=O)/C(=C(/O)c2ccc(OC(C)C)cc2)C1c1ccncc1 (stereo unspecified) | inactive: > 76.9 µM |
| Cn1c(NC(=O)c2cc(-c3ccc4c(c3)OCO4)nc3ccccc23)cc(=O)n(C)c1=O | inactive: > 76.9 µM |
| COCCCn1c(SCC(=O)Nc2cccc(C(=O)OC)c2)nnc1-c1ccncc1 | inactive: > 76.9 µM |
| CCN(CC)C(=O)NC1CC2CCCC(C1)N2Cc1ccccc1 (stereo unspecified) | inactive: > 76.9 µM |
| N#Cc1cccc(Cn2nnc(-c3ccccc3)n2)c1 | inactive: > 76.9 µM |
| CCOP(=O)(c1c(F)c(F)c(F)c(F)c1F)C(O)c1ccccc1 (stereo unspecified) | inactive: > 76.9 µM |
| COc1ccc2[nH]c(=O)c(CN(C(=O)c3ccccn3)C3CCCCC3)cc2c1 | inactive: > 76.9 µM |
| CCC1(CC)C(=O)C(C)(C)C(=O)OC1c1ccccn1 (stereo unspecified) | inactive: > 76.9 µM |
| CCc1nc(N)c(C#N)c(-c2ccncc2)c1C | inactive: > 76.9 µM |
| COc1ccc(C(=O)OCC(=O)c2ccc(C)c(S(=O)(=O)N3CCOCC3)c2)cc1OC | inactive: > 76.9 µM |
| Cc1ccc(S(=O)(=O)N2CCN(C(=O)c3cc(=O)[nH]c4ccccc34)CC2)c(C)c1 | inactive: > 76.9 µM |
| O=C(NCc1ccco1)c1cc2cc3ccc(Cl)cc3nc2o1 | inactive: > 76.9 µM |
| Fc1ccc2[nH]c3c(N4CCN(c5ccccc5)CC4)ncnc3c2c1 | inactive: > 76.9 µM |
| O=C(c1cc(Cl)ccc1Cl)N1CCN(c2ccccn2)CC1 | inactive: > 76.9 µM |
| CCCN1CCN(CCCNC(=O)C2CCCN(c3nc4ccc(OCC)cc4s3)C2)CC1 (stereo unspecified) | inactive: > 76.9 µM |
| COc1ccc(C(C)=O)cc1COC(=O)c1cc(C)oc1C | inactive: > 76.9 µM |
| O=C(CSc1nnnn1C1CCCC1)Nc1ccc2c(c1)OCCO2 | inactive: > 76.9 µM |
| Cc1cc(NC(=O)CSc2nc3cc4c(cc3c(=O)n2CCc2ccccc2)OCO4)no1 | inactive: > 76.9 µM |
| O=C(Nc1ccc(S(=O)(=O)N2CCCC2)cc1)c1ccc(CN2CCOCC2)cc1 | inactive |
| CCOC(=O)c1nnn(-c2nonc2N)c1CN1CCCCCC1 | inactive: > 76.9 µM |

| Structure (SMILES) | Potency |
| --- | --- |
| O=C(c1ccc(Cl)cc1)C1CCN(C(=O)NC2CCCCC2)CC1 | inactive: > 76.9 µM |
| Clc1cccc(-c2nc3nc4ccccc4nc3n2Cc2ccco2)c1 | inactive: > 76.9 µM |
| CC1CCC(NC(=O)CN2C(=O)C3CCCN3c3ncc(Cl)cc32)CC1 (stereo unspecified) | inactive: > 76.9 µM |
| CC1Oc2ccccc2N(CC(=O)NCC2CCCO2)C1=O (stereo unspecified) | inactive: > 76.9 µM |
| Cc1ccc(C(=O)NC2CCCc3ccccc32)o1 (stereo unspecified) | inactive: > 76.9 µM |
| CCCCOc1ccccc1-c1cc(C(=O)O)[nH]n1 | inactive: > 76.9 µM |
| N#CN=C(N)c1ccccc1 | inactive: > 76.9 µM |
| COC(=O)c1ccc(C2C(C#N)=C(N)Oc3cc(C)n(C)c(=O)c32)cc1 (stereo unspecified) | inactive: > 76.9 µM |
| CCn1c(=O)c(C(=O)Nc2nc3ccccc3[nH]2)c(O)c2ccccc21 | inactive: > 76.9 µM |
| Cc1ccccc1Cn1c(=O)c2c(nc3n2CCCN3Cc2ccccc2)n(C)c1=O | inactive: > 76.9 µM |
| Cc1cccc(NC(=O)CC(C)(C)C)c1 | inactive: > 76.9 µM |
| COc1ccccc1NC(=O)N1CCCC1C(=O)NCc1ccccc1F (stereo unspecified) | inactive: > 76.9 µM |
| Cc1ccc2cc(CN(CCCO)S(=O)(=O)c3cccc4nsnc34)c(=O)[nH]c2c1C | inactive: > 76.9 µM |
| Oc1ccc(N2CCN(C(c3cccs3)c3nnnn3CCc3ccccc3)CC2)cc1 (stereo unspecified) | inactive |
| COc1ccccc1CNCc1cccs1 | inactive: > 76.9 µM |
| CC1CCN(S(=O)(=O)c2ccc(NC(=O)CSc3nnnn3C)cc2)CC1 | inactive: > 76.9 µM |
| CN(C)C(CNS(=O)(=O)c1ccc(Br)cc1)c1cccnc1 (stereo unspecified) | inactive: > 76.9 µM |
| COC(=O)c1ccc(N2C(=O)c3ccc(OC)c(OC)c3C2=O)cc1 | inactive: > 76.9 µM |
| CN(Cc1cc(=O)[nH]c2ccccc12)C(=O)c1ccccc1 | inactive: > 76.9 µM |
| COc1ccc(OC)c(-c2nc3c(C)n[nH]c(=O)c3[nH]2)c1 | inactive: > 76.9 µM |
| O=C(Nc1cccc(NC(=O)c2cccs2)c1)c1ccco1 | inactive: > 76.9 µM |
| O=C(CCn1nc(-c2ccccc2)ccc1=O)NCCCN1CCCCCC1 | inactive: > 76.9 µM |
| Cc1nnc(SCc2cc(=O)[nH]c(Nc3nc(C)c4ccccc4n3)n2)s1 | inactive: > 76.9 µM |

| Structure (SMILES) | Potency |
| --- | --- |
| Brc1ccc(Nc2c3c(nc4ncnn24)CCC3)cc1 | inactive: > 76.9 µM |
| NC(=O)c1c(-c2ccccc2)oc2ccc(O)cc12 | inactive: > 76.9 µM |
| O=C(CC(=O)Nc1ccccn1)Nc1ccccn1 | inactive: > 76.9 µM |
| COc1ccc2cc(CN(C(=O)Nc3ccccc3OC)C3CCCC3)c(=O)[nH]c2c1 | inactive: > 76.9 µM |
| Cc1cnc(NC(=O)COc2ccccc2)s1 | inactive: > 76.9 µM |
| COc1ccccc1S(=O)(=O)Cc1ccc(C(=O)N2CCN(c3ccccc3)CC2)o1 | inactive: > 76.9 µM |
| CCOC(=O)c1c(C)oc2c1cc(O)c1ccccc12 | inactive: > 76.9 µM |
| COC1(OC)C(=N/O)/C(=N\O)CCC1O (stereo unspecified) | inactive: > 76.9 µM |
| Cc1nnc(NC(=O)CCC(=O)N2CCC(C)CC2)s1 | inactive: > 76.9 µM |
| O=c1[nH]c2cc3c(cc2cc1C(c1nnnn1C1CCCCC1)N1CCSCC1)OCCO3 (stereo unspecified) | inactive: > 76.9 µM |
| N#Cc1c(N)nc(SC2CCCCC2=O)c(C#N)c1-c1ccco1 (stereo unspecified) | inactive: > 76.9 µM |
| Cc1csc(NC(=O)CSCC(=O)Nc2ccccc2)n1 | inactive: > 76.9 µM |
| CCOc1ccccc1-c1nc(-c2ccc(NC(=O)c3ccc(Br)o3)cc2)no1 | inactive: > 76.9 µM |
| O=c1[nH]nc2c3ccccc3cnn12 | inactive: > 76.9 µM |
| COc1ccc(NC(=O)Cn2nnc(-c3ccc(CN4CCOCC4)cc3)n2)c(OC)c1 | inactive: > 76.9 µM |
| Cc1cc(C(=O)CSc2nnc(-c3cccs3)o2)c(C)n1-c1ccccc1 | inactive: > 76.9 µM |
| COc1ccc(C(C(O)C(=O)c2c[nH]c3ccccc23)N2CCN(c3ccc(OC)cc3)CC2)cc1 (stereo unspecified) | inactive: > 76.9 µM |
| Cc1c(NC(=O)C2CC(c3c(F)cccc3Cl)=NO2)c(=O)n(-c2ccccc2)n1C (stereo unspecified) | inactive: > 76.9 µM |
| O=C(CNC(=O)C12CC3CC(CC(C3)C1)C2)NC1=NCCS1 | inactive: > 76.9 µM |
| CCOC(=O)N1CCC(NC(=O)c2cn(-c3ccc(OC)cc3)c(=O)c3ccccc23)CC1 | inactive: > 76.9 µM |
| CC(C)(C)c1cc(C(=O)N2CCN(c3ncccn3)CC2)ccn1 | inactive: > 76.9 µM |
| O=c1oc2ccccc2c(O)c1C=NCc1ccccn1 | inactive: > 76.9 µM |
